Experimental data reported in PubChem BioAssay AID686979 (National Center for Advancing Translational Sciences (NCATS), 2013).
“And” between values parts separate entries of the source, which are not always exact repeats. Identical values can stand only once. Among all 420,000 compounds or so, about 50,000 (12%) were called active. Inconclusive results, whose numbers are uncertain, are shown with a selection of clear calls. Calls follow the shape of the dose curve; as a rule, active = well fitted inhibition curve with a large enough effect; inconclusive = small, poorly fitted or top-dose-only effect; inactive = flat fitted curve, though single readings scatter. A potency beside an inconclusive call is a rough fit, not a confirmed value.

Assay: qHTS for Inhibitors of human tyrosyl-DNA phosphodiesterase 1 (TDP1): qHTS in cells in presence of CPT; also: nearly all actives have a fitted effect of over 55% in size
Conditions: chicken DT40 Tdp1-/-;hTDP1 cells + 20 nM CPT, ATP luminescence, 48 h; activity change, negative = growth inhibition: at 46.2 µM (top of the series) unless noted
Method in brief: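 Cell growth measured by CellTiter-Glo luminescence after a minimum 48 h, 37 C compound exposure with 20 nM CPT in Tdp1-knockout DT40 cells stably expressing hTDP1, seeded 400/well; qHTS titration format.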
% is scaled to controls: 0 for no effect and ±100 for the full control effect; potency is read from the fitted curve at half-maximal effect; tags tell the direction and shape of the fitted curve.

SMILES | Potency | activity change, negative = growth inhibition
Cc1c(NC(=O)Nc2ccc(Cl)c(Cl)c2)sc(=S)n1C | active: 25.9 µM | –
Cc1cccc(NC(=S)N(c2ccccc2)C(C)C)c1C | inconclusive: 29.1 µM [inhibitor, single point] | –
CC(C)(C)Cc1nnc(NC(=O)Cc2ccc([N+](=O)[O-])cc2)s1 | inconclusive: 25.9 µM [inhibitor, single point] | –
CC(=O)N1CCC2(CC1)OC(=O)C(C)=C2C(=O)Nc1cccc(Cl)c1C | – | inactive: 10.1%
O=C(C1CCN(S(=O)(=O)c2ccc(Cl)cc2)CC1)N1CCCCCCC1 | inconclusive: 18.4 µM [inhibitor, single point] | –
Cc1ccc(-n2c(C)cc(C(=O)CN3CCCCC3)c2C)cc1 | inconclusive: 16.4 µM [inhibitor, partial curve, poor fit] | –
O=C(CCN1CCCCC1)c1ccccc1 | active: 11.2 µM | –
CCCCc1ccc(NC(=O)CSc2nc(=O)n3cc(C)ccc3n2)cc1 | inconclusive: 29.1 µM [inhibitor, single point] | –
CCC(ONc1ccccc1C(F)(F)F)(C(=O)NN(C)C)c1ccccc1 (stereo not drawn) | inconclusive: 23.1 µM [inhibitor, single point] | –
COc1ccccc1N1CCN(C(=O)C2CCCN(c3ncnc4c3nc3n4CCCCC3)C2)CC1 (stereo not drawn) | active: 14.6 µM | –
O=C(COC(=O)CCc1c[nH]c2ccccc12)Nc1cccc(Cl)c1 | inconclusive: 29.1 µM [inhibitor, single point] | –
O=C(CC1N=C2c3ccccc3N=C(SCc3ccccc3F)N2C1=O)NCCc1ccccc1 (stereo not drawn) | active: 20.6 µM | –
COc1cc(NC(=O)C2CCCN2C(=O)C2CCC(C)CC2)cc(OC)c1OC (stereo not drawn) | inconclusive: 7.31 µM [inhibitor, partial curve] | –
CCc1ccc(NC(=O)C2C3/C=C\CCCCC32)cc1 (stereo not drawn) | – | inconclusive: -32.5% [inhibitor]
O=C(O)c1ccc2c(=O)n3c(nc2c1)/C(=C/c1cccc(Cl)c1Cl)CCCC3 | – | inactive: -2.34%
COc1cccc(C(=O)NCc2ccc(-c3nc4ccccc4s3)cc2)c1 | active: 18.4 µM | –
COc1ccc(-c2csc3nc(C)nc(N4CCCCC4)c23)cc1OC | inconclusive: 8.2 µM [inhibitor, partial curve, poor fit] | –
C/C(=N\NC(N)=O)c1ccc(-n2ccnc2)cc1 | – | inactive: -4.6%
Cc1ccc(Cl)cc1Nc1nc2ccccc2c2nncn12 | inconclusive: 29.1 µM [inhibitor, single point] | –
COc1cc(C(=O)NC(C)c2cnn(-c3ccccc3C)c2C)cc(OC)c1OC (stereo not drawn) | – | inactive: -11.6%
Cc1ccsc1CCN1C(=O)N(c2ccccc2)C(=O)C1CC(=O)Nc1ccc(F)cc1 (stereo not drawn) | inconclusive: 20.6 µM [inhibitor, single point] | –
COc1ccc(CCC(=O)NCc2ccc3c(c2)CCN3C(=O)c2ccc(F)cc2)cc1 | inconclusive: 29.1 µM [inhibitor, single point] | –
CCCS(=O)(=O)c1nc(S(=O)(=O)c2ccc(C)cc2)c(NCc2ccco2)s1 | inconclusive: 29.1 µM [inhibitor, single point] | –

SMILES | Potency | activity change, negative = growth inhibition
Cc1cccc(N2CCN(C(=O)Cn3cccc3C(=O)c3ccccc3)CC2)c1C | inconclusive: 18.4 µM [inhibitor, partial curve] | –
Cc1ccc(CCNC(=O)CCN2N=C(c3ccc(C)cc3)CCC2=O)cc1 | inconclusive: 20.6 µM [inhibitor, single point] | –
O=C(c1ccccc1)N(NC(=O)C(O)(c1ccccc1)c1ccccc1)c1cccc(F)c1 | – | inconclusive: -34.2% [inhibitor]
CC1=C(C(=O)N(C)C)CC(CC(=O)NCc2cccc3ccccc23)C(=O)N1CCC1=CCCCC1 (stereo not drawn) | inconclusive: 29.1 µM [inhibitor, single point] | –
COc1ccc(-n2c(SC3CCOC3=O)nc3ccccc3c2=O)cc1Cl (stereo not drawn) | active: 13 µM | –
COc1ccccc1CNC(=O)C(=O)NCC1CCCN1S(=O)(=O)c1cccs1 (stereo not drawn) | inconclusive: 29.1 µM [inhibitor, single point] | –
COc1ccc(NC(=O)C(C)Oc2ccc(/C(C)=N\O)cc2)cc1 (stereo not drawn) | inconclusive: 25.9 µM [inhibitor, single point] | –
Cc1ccc(OCC(=O)Nc2ccc3c(c2)nc(CCN2CCN(C)CC2)n3C)cc1 | inconclusive: 25.9 µM [inhibitor, single point] | –
COC(=O)[C@@]12C[C@@H](CC(=O)NCc3ccc(OC)c(OC)c3)C(=O)N(CCc3ccc(OC)c(OC)c3)C1=CCC(C)(C)C2 | active: 16.4 µM | –
c1ccc(CN=C(NCc2ccccc2)NCc2ccccc2)cc1 | active: 2.31 µM | –
CCOC(=O)c1ccc(NC(=O)Cn2nc(SC)c(S(=O)(=O)c3ccc(Cl)cc3)c2N)cc1 | inconclusive: 23.1 µM [inhibitor, single point] | –
Cc1ccsc1/C=N/NC(=O)c1sccc1C | – | inconclusive: -32.3% [inhibitor]
CC(C)Cn1c(N2CCN(CC(=O)Nc3ccc(Cl)cc3)CC2)nc2ccccc21 | inconclusive: 20.6 µM [inhibitor, single point] | –
COC(=O)c1nn(-c2ccccc2)nc1-c1nn(-c2ccccc2)nc1C(=O)OC | inconclusive: 20.6 µM [inhibitor, single point] | –
CC(Sc1nnnn1-c1ccccc1)C(=O)Nc1ccc(N2CCN(C)CC2)cc1 (stereo not drawn) | active: 13 µM | –
COc1cc2c(cc1OC)C1(O)C(=O)c3ccc(O)c(C(=O)O)c3OC1CO2 (stereo not drawn) | inconclusive: 8.2 µM [inhibitor, partial curve] | –
COc1ccc(OC)c(NC(=O)C2(C)CCN2C(=O)C2(c3ccc(Cl)cc3)CCC2)c1 (stereo not drawn) | inconclusive: 29.1 µM [inhibitor, single point] | –
Cc1cccc(C)c1NC(=O)NC1(C(=O)N2CCOCC2)CCCCC1 | – | inactive: 1.06%
COc1cc(CN2CCC(C(=O)NC(c3ccc(F)cc3)c3ccc4ccccc4n3)CC2)cc(OC)c1 (stereo not drawn) | active: 3.66 µM | –
COC(=O)c1ccc(Cn2cc(Cl)cn2)o1 | – | inactive: 1.86%
CN(Cc1ccccc1)C(=O)c1ccc(NC(=O)Cc2ccc([N+](=O)[O-])cc2)cc1 | inconclusive: 25.9 µM [inhibitor, single point] | –
COc1ccccc1NC(=O)N1c2ccccc2Sc2ccccc21 | active: 14.6 µM | –
CC1CCc2sc(C(=O)N/N=C/C3CCCCC3)cc2C1 (stereo not drawn) | – | inactive: 8.96%

SMILES | Potency | activity change, negative = growth inhibition
O=C(O)c1ccc2c(c1)c1c3n2CCNC3CCC1 (stereo not drawn) | – | inactive: 8.14%
CCCCCCCC(=O)NC(Nc1ccccc1OC)C(Cl)(Cl)Cl (stereo not drawn) | inconclusive: 29.1 µM [inhibitor, single point] | –
CCOC(=O)C1=CC[C@H]2c3c(c4ccccc4n3C)C(=O)C1N2C(=O)OC(C)(C)C | inconclusive: 29.1 µM [inhibitor, single point] | –
O=C(Nc1cc(Cl)ccc1N1CCOCC1)c1ccncc1 | – | inactive: -14.7%
CC(C)(C)c1ccc(C(=O)NC(=O)COC(=O)c2ccco2)cc1 | inconclusive: 20.6 µM [inhibitor, single point] | –
Cc1cccn2c(=O)c3cc(C(=O)N4CCN(Cc5ccccc5)CC4)sc3nc12 | inconclusive: 16.4 µM [inhibitor, partial curve] | –
CC1C(=O)N2CCCc3cc(S(=O)(=O)NCc4ccccc4Cl)cc1c32 (stereo not drawn) | inconclusive: 29.1 µM [inhibitor, single point] | –
O=C(CN1C(=O)c2ccccc2S1(=O)=O)Nc1cccc(S(=O)(=O)N2CCCCC2)c1 | inconclusive: 29.1 µM [inhibitor, single point] | –
CCc1cccc(CC)c1NC(=S)Nc1cccc(Cl)c1Cl | active: 18.4 µM | –
C#C[C@]1(O)CC[C@H]2[C@@H]3CCc4cc(O)ccc4[C@H]3CC[C@@]21C | inconclusive: 21.1 µM [inhibitor, partial curve, poor fit] and inconclusive: 18.4 µM [inhibitor, single point] | –
COCCNC(=O)C1(C)CCCN(C(=O)c2ccccc2C(F)(F)F)C1 (stereo not drawn) | – | inactive: -19.4%
CC(=O)c1ccc(NC(=O)C2CCN(S(=O)(=O)c3ccc4c(c3)N(C(C)=O)CCO4)CC2)cc1 | – | inactive: -23.8%
O=C(COC(=O)c1cc(S(=O)(=O)N2CCOCC2)c(Cl)cc1Cl)c1ccc[nH]1 | – | inactive: -7.42%
Cc1ccc(S(=O)(=O)Nc2cc(C(C)C)c(O)cc2C)cc1 | inconclusive: 29.1 µM [inhibitor, single point] | –
CCOc1cc(Br)cc(C2NC(=O)c3c(sc4c3CCN(C)C4)N2)c1O (stereo not drawn) | inconclusive: 16.4 µM [inhibitor, single point] | –
Cc1scc(C(=O)N/N=C/c2ccc(OCC(C)C)cc2)c1C | inconclusive: 18.4 µM [inhibitor, single point] | –
CCSc1cc(C)nc2c(-c3ccccc3)cnn12 | inconclusive: 18.4 µM [inhibitor, single point] | –
CC(C)CCNC(=O)c1cc(-c2ccncc2)nc2ccc(S(=O)(=O)N3CCOCC3)cc12 | inconclusive: 0.0164 µM [inhibitor, full curve, poor fit] | –
CN(C)c1ccc(CNC(=O)c2ccc(Cn3c(=O)c4cccn4c4cccnc43)cc2)cc1 | inconclusive: 0.082 µM [inhibitor, full curve] | –
O=C(CSc1nnc2ccccn12)Nc1ccccc1[N+](=O)[O-] | – | inactive: -8.28%
c1ccc2c(CSc3ncnc4nc[nH]c34)cccc2c1 | inconclusive: 25.9 µM [inhibitor, single point] | –
COc1ccc(C(NC(=O)C2CCN(Cc3ccc(Oc4ccccc4)cc3)CC2)c2ccccc2C)cn1 (stereo not drawn) | active: 20.6 µM | –
